Source: the supplement of paper PMC4967469
The IC50 comes from the fitted curve, where viability falls to half of the control; a limit (>, <) means that the fit lies beyond the doses tested. For AUC the same curve is integrated over the 256-fold range of doses and scaled to a fraction; the more sensitive the line, the further below 1. For some assays here: A top dose marked as inferred was derived from the fitted curves, not read from the paper. For some assays here: Drugs with an entry number were screened twice under separate entries, and the two screens often disagree.

Legend:
Assay in all cases: Viability of human cancer cell lines after 72 h of drug (GDSC screen)
[1] = compound: Cn1cc(C2=C(c3ccc(Cl)cc3Cl)C(=O)NC2=O)c2ccccc21 [SB 216763]; details: top dose 10 µM; top dose inferred
Protocol: (§1)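 Human cancer cell lines in 384-well plates, medium with 10% serum, drug for 72 h over a 256-fold dose range (nine 2-fold or five 4-fold steps up to the top dose). Adherent lines were fixed and stained with the nucleic acid dye Syto60, suspension lines read with resazurin; signal relative to control wells, capped at 0 and 100%. One two-parameter sigmoid per drug and line, fitted in a mixed model over all curves with the slope shared within a line.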

[2] = compound: Cc1ccc(Nc2nccc(N(C)c3ccc4c(C)n(C)nc4c3)n2)cc1S(N)(=O)=O [Pazopanib]; details: top dose 8 µM
Protocol: as §1

[3] = compound: CS(=O)(=O)N1CCN(Cc2cc3nc(-c4cccc5[nH]ncc45)nc(N4CCOCC4)c3s2)CC1 [GDC0941]; details: top dose 4 µM; screen: GDSC drug entry 1527; top dose inferred
Protocol: as §1

[4] = compound: C[C@]12O[C@H](C[C@]1(O)CO)n1c3ccccc3c3c4c(c5c6ccccc6n2c5c31)CNC4=O [CEP-701]; details: top dose 2 µM; top dose inferred
Protocol: as §1

[5] = compound: CC(C)[C@H](C(=O)Nc1ccc(C(=O)NO)cc1)c1ccccc1 [AR-42]; details: top dose 5.12 µM; top dose inferred
Protocol: as §1

| Cell Line | AUC [1] | IC50 [1] | AUC [2] | IC50 [2] | AUC [3] | IC50 [3] | AUC [4] | IC50 [4] | AUC [5] | IC50 [5] |
| --- | --- | --- | --- | --- | --- | --- | --- | --- | --- | --- |
| MOG-G-CCM (glioma, adherent) | 0.842 | 8.81 µM | 0.908 | > 8 µM | 0.7 | 1.01 µM | 0.562 | 190 nM | 0.541 | 423 nM |
| HCC-44 (lung adenocarcinoma, adherent) | 0.982 | > 10 µM | 0.935 | > 8 µM | 0.743 | 1.22 µM | 0.587 | 215 nM | 0.434 | 212 nM |
| KOPN-8 (B-cell leukaemia, suspension) | 0.99 | > 10 µM | 0.988 | > 8 µM | 0.923 | > 4 µM | 0.433 | 84.5 nM | 0.206 | 51.7 nM |
| SCC-4 (head and neck, adherent) | 0.951 | > 10 µM | 0.953 | > 8 µM | 0.932 | > 4 µM | 0.727 | 633 nM | 0.669 | 1040 nM |
| Capan-2 (pancreas, adherent) | 0.985 | > 10 µM | 0.9 | > 8 µM | 0.658 | 0.758 µM | 0.881 | > 2000 nM | 0.973 | > 5120 nM |
| DAN-G (pancreas, adherent) | 0.991 | > 10 µM | 0.967 | > 8 µM | 0.675 | 0.715 µM | 0.947 | > 2000 nM | 0.608 | 608 nM |
| SK-MEL-30 (melanoma, adherent) | 0.986 | > 10 µM | 0.975 | > 8 µM | 0.901 | > 4 µM | 0.8 | 1030 nM | 0.572 | 510 nM |
| HMV-II (melanoma, adherent) | 0.969 | > 10 µM | 0.65 | 1.44 µM | 0.918 | > 4 µM | 0.632 | 315 nM | 0.667 | 1040 nM |
| DK-MG (glioma, adherent) | 0.969 | > 10 µM | 0.774 | 4.84 µM | 0.872 | > 4 µM | 0.662 | 441 nM | 0.752 | 2500 nM |
| NCI-H810 (large cell lung carcinoma, adherent) | 0.988 | > 10 µM | 0.845 | 5.4 µM | 0.958 | > 4 µM | 0.747 | 614 nM | 0.276 | 76.3 nM |
| HSC-4 (head and neck, adherent) | 0.947 | > 10 µM | 0.977 | > 8 µM | 0.627 | 0.631 µM | 0.599 | 256 nM | 0.786 | 3040 nM |
| SW1990 (pancreas, adherent) | 0.977 | > 10 µM | 0.825 | 5.98 µM | 0.902 | > 4 µM | 0.8 | 1170 nM | 0.978 | > 5120 nM |
| EN (endometrium, adherent) | 0.984 | > 10 µM | 0.925 | > 8 µM | 0.907 | > 4 µM | 0.831 | 1760 nM | 0.621 | 757 nM |
| TT (thyroid, adherent) | 0.981 | > 10 µM | 0.875 | > 8 µM | 0.93 | > 4 µM | 0.658 | 409 nM | 0.954 | > 5120 nM |
| DMS-273 (small cell lung carcinoma, adherent) | 0.954 | > 10 µM | 0.845 | 6.31 µM | 0.849 | 3.29 µM | 0.862 | 1870 nM | 0.396 | 163 nM |
| SLVL (B-cell lymphoma, suspension) | 0.98 | > 10 µM | 0.948 | > 8 µM | 0.901 | > 4 µM | 0.839 | 1480 nM | 0.314 | 92.9 nM |
| SK-HEP-1 (liver, adherent) | 0.989 | > 10 µM | 0.894 | > 8 µM | 0.891 | > 4 µM | 0.315 | 39.6 nM | 0.655 | 835 nM |
| OVTOKO (ovary, adherent) | 0.974 | > 10 µM | 0.943 | > 8 µM | 0.596 | 0.494 µM | 0.559 | 189 nM | 0.672 | 1110 nM |
| EFO-21 (ovary, adherent) | 0.98 | > 10 µM | 0.897 | > 8 µM | 0.779 | 2.42 µM | 0.864 | > 2000 nM | 0.812 | 4380 nM |
| SJRH30 (rhabdomyosarcoma, adherent) | 0.985 | > 10 µM | 0.915 | > 8 µM | 0.758 | 1.43 µM | 0.551 | 174 nM | 0.526 | 377 nM |
| SW1271 (small cell lung carcinoma, adherent) | 0.984 | > 10 µM | 0.797 | 4.44 µM | 0.97 | > 4 µM | 0.786 | 1010 nM | 0.594 | 603 nM |
| KP-2 (pancreas, adherent) | 0.964 | > 10 µM | 0.981 | > 8 µM | 0.842 | 3.16 µM | 0.78 | 893 nM | 0.585 | 558 nM |
| Hs633T (fibrosarcoma, adherent) | 0.977 | > 10 µM | 0.98 | > 8 µM | 0.8 | 1.54 µM | 0.346 | 51.1 nM | 0.473 | 274 nM |
| KYSE-50 (oesophagus, adherent) | 0.99 | > 10 µM | 0.868 | 6.27 µM | 0.932 | > 4 µM | 0.8 | 869 nM | 0.77 | 1780 nM |
| KINGS-1 (glioma, adherent) | 0.944 | > 10 µM | 0.944 | > 8 µM | 0.829 | 3.89 µM | 0.644 | 364 nM | 0.499 | 317 nM |
| SW1417 (large intestine, adherent) | 0.985 | > 10 µM | 0.986 | > 8 µM | 0.889 | > 4 µM | 0.794 | 1100 nM | 0.591 | 594 nM |
